Measured values published in the supplement of paper PMC4604168 (melanoma cell lines).
This is one part of the list. Most values come without repeats; read them as rough.

Assays:
Experiment in all cases: cell count relative to DMSO control; melanoma cells; higher = more viable cells
Conditions in all cases: library dose: standard library concentration; 72 h
[1] = tested on: A101D
[2] = tested on: A2058
[3] = tested on: A375
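Further: cells treated in 1,536-well plates, then fixed and DAPI-stained, with nuclei counted from automated high-throughput microscope images.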

SMILES | cell count [1] [%] | cell count [2] [%] | cell count [3] [%]
Cn1cnc2c(F)c(Nc3ccc(Br)cc3Cl)c(C(=O)NOCCO)cc21 [selumetinib] + C=CCn1c(=O)c2cnc(Nc3ccc(N4CCN(C)CC4)cc3)nc2n1-c1cccc(C(C)(C)O)n1 [MK1775] (first compound 0.075 µM, partner dose 0.1 µM) | 54 | 80.3 | 60.9
COc1cc([C@@H]2c3cc4c(cc3[C@@H](O[C@@H]3O[C@@H]5CO[C@@H](C)O[C@H]5[C@H](O)[C@H]3O)[C@H]3COC(=O)[C@H]23)OCO4)cc(OC)c1O [etoposide] + Nc1ncn([C@H]2C[C@H](O)[C@@H](CO)O2)c(=O)n1 [decitabine] (first compound 0.1 µM, partner dose 0.5 µM) | 73.6 | 74.5 | 101
COc1cc([C@@H]2c3cc4c(cc3[C@@H](O[C@@H]3O[C@@H]5CO[C@@H](C)O[C@H]5[C@H](O)[C@H]3O)[C@H]3COC(=O)[C@H]23)OCO4)cc(OC)c1O [etoposide] + Clc1ccc(Nc2nnc(Cc3ccncc3)c3ccccc23)cc1 [vatalanib] (first compound 0.1 µM, partner dose 10 µM) | 90.7 | 55.6 | 64.2
C[C@]1(O)C[C@@H](c2nc(-c3ccc4ccc(-c5ccccc5)nc4c3)c3c(N)nccn32)C1 + COc1ccc(Cl)c(Nc2nc3ccccc3nc2NS(=O)(=O)c2cccc(NC(=O)C(C)(C)N)c2)c1 [XL147] (first compound 2 µM, partner dose 4 µM) | 123 | 102 | 92.1
Cn1cnc2c(F)c(Nc3ccc(Br)cc3Cl)c(C(=O)NOCCO)cc21 [selumetinib] + CCCCCCCCc1ccc(CCC(N)(CO)CO)cc1 [fingolimod] (first compound 0.075 µM, partner dose 10 µM) | 8.35 | 3.37 | 26.2
Cn1cnc2c(F)c(Nc3ccc(Br)cc3Cl)c(C(=O)NOCCO)cc21 [selumetinib] + COc1cc(Nc2ncc(F)c(Nc3ccc4c(n3)NC(=O)C(C)(C)O4)n2)cc(OC)c1OC [Tamatinib] (first compound 0.075 µM, partner dose 2 µM) | 73.9 | 61.4 | 88.8
C[C@]1(O)C[C@@H](c2nc(-c3ccc4ccc(-c5ccccc5)nc4c3)c3c(N)nccn32)C1 + CC(C)C[C@H](NC(=O)[C@H](Cc1ccccc1)NC(=O)c1cnccn1)B(O)O [Bortezomib] (first compound 2 µM, partner dose 0.005 µM) | 16.4 | 12.1 | 73.4
Cn1cnc2c(F)c(Nc3ccc(Br)cc3Cl)c(C(=O)NOCCO)cc21 [selumetinib] + COc1cc(N2CCC(N3CCN(C)CC3)CC2)ccc1Nc1ncc(Cl)c(Nc2ccccc2S(=O)(=O)C(C)C)n1 [NVP-TAE684] (first compound 0.075 µM, partner dose 0.4 µM) | 78.9 | 69.5 | 75.3
COc1cc([C@@H]2c3cc4c(cc3[C@@H](O[C@@H]3O[C@@H]5CO[C@@H](C)O[C@H]5[C@H](O)[C@H]3O)[C@H]3COC(=O)[C@H]23)OCO4)cc(OC)c1O [etoposide] + C=C(c1ccc(C(=O)O)cc1)c1cc2c(cc1C)C(C)(C)CCC2(C)C [Bexarotene] (first compound 0.1 µM, partner dose 10 µM) | 83.5 | 83 | 67.7
Cn1cnc2c(F)c(Nc3ccc(Br)cc3Cl)c(C(=O)NOCCO)cc21 [selumetinib] + CO[C@@H]1[C@H](N(C)C(=O)c2ccccc2)C[C@H]2O[C@]1(C)n1c3ccccc3c3c4c(c5c6ccccc6n2c5c31)C(=O)NC4 [Midostaurin] (first compound 0.075 µM, partner dose 0.4 µM) | 53.8 | 63.4 | 62.2
COc1cc([C@@H]2c3cc4c(cc3[C@@H](O[C@@H]3O[C@@H]5CO[C@@H](C)O[C@H]5[C@H](O)[C@H]3O)[C@H]3COC(=O)[C@H]23)OCO4)cc(OC)c1O [etoposide] + COc1cc2c(Oc3ccc4[nH]c(C)cc4c3F)ncnc2cc1OCCCN1CCCC1 [cediranib] (first compound 0.1 µM, partner dose 2 µM) | 104 | 79.8 | 66.7
COc1cc([C@@H]2c3cc4c(cc3[C@@H](O[C@@H]3O[C@@H]5CO[C@@H](C)O[C@H]5[C@H](O)[C@H]3O)[C@H]3COC(=O)[C@H]23)OCO4)cc(OC)c1O [etoposide] + CC1(C)NC(=O)N(c2ccc([N+](=O)[O-])c(C(F)(F)F)c2)C1=O [nilutamide] (first compound 0.1 µM, partner dose 5 µM) | 96.1 | 95.2 | 63.3
